Source: PubChem BioAssay AID686979 (National Center for Advancing Translational Sciences (NCATS), 2013)
“And” between values parts separate entries of the source, which are not always exact repeats. Equal entries are not always repeated. Hit rate of the full screen: of about 420,000 compounds, about 50,000 (12%) were called active. Inconclusive results, whose numbers are uncertain, are shown with a selection of clear calls. Calls come from the whole dose curve; as a rule, active = well fitted inhibition curve with a large enough effect; inconclusive = small, poorly fitted or top-dose-only effect; inactive = flat fitted curve, though single readings scatter. No potency is given beside an inconclusive call; the fits are too rough. The source holds several records for some structures; these can differ, active in one and inactive in another.

Experiment: qHTS for Inhibitors of human tyrosyl-DNA phosphodiesterase 1 (TDP1): qHTS in cells in presence of CPT; note: nearly all actives have a fitted effect of over 55% in size
Conditions: chicken DT40 Tdp1-/-;hTDP1 cells + 20 nM CPT, ATP luminescence, 48 h; activity change, negative = growth inhibition: at 46.2 µM (top of the series)
How it was run: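 Chicken DT40 Tdp1-/- cells stably complemented with human TDP1 were seeded at 400 cells/well in medium containing 20 nM camptothecin, exposed to pin-transferred compounds, and grown at 37 °C for at least 48 hr. Viability was read as ATP luminescence.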
% is set by controls: 0 for no effect and ±100 for the full control effect; potency is the fitted concentration of half-maximal effect; tags give direction and shape of the fitted curve.

SMILES | activity change, negative = growth inhibition | Potency
CCN1C(=O)CSC1=Nc1cccc(C(=O)O)c1 | inactive: -2.19% | –
Cc1ccc(CNC(=O)c2cc3sccc3n2Cc2ccc(F)cc2)cc1 | – | inconclusive [inhibitor, partial curve]
CC(=O)Nc1ccc([N+](=O)[O-])c(CS(=O)(=O)c2ccc(C)cc2)c1[N+](=O)[O-] | – | inconclusive [inhibitor, partial curve, poor fit]
C#CCOCCOCCOCCNc1nc(N2CCN(C(=O)Cn3cc(CCO)nn3)CC2)nc(N2CCN(C(=O)[C@H](CCCCN)n3cc(CC(C)O)nn3)CC2)n1 (stereo partly drawn) | inactive: 3.5% | –
CCOC(=O)c1c(NC(C)=O)sc2c(O)c(CN3CCN(CC)CC3)ccc12 | – | inconclusive [inhibitor, single point]
CC(C)CCNC(=O)C1(C)CCN1Cc1ccc(-c2ccccn2)cc1 (stereo not drawn) | – | inconclusive [inhibitor, single point]
CCOC(=O)CN1C(=O)SC(CC(=O)Nc2nccs2)C1=O (stereo not drawn) | inactive: -10.3% | –
CCOc1ccc(S(=O)(=O)NCC(=O)OCc2nnc(-c3ccccc3)o2)cc1 | inactive: -13.1% | –
CC(=O)OCC1=C(C(=O)O)N2C(=O)C(NC(=O)CSc3ccncc3)[C@@H]2SC1 (stereo partly drawn) | inactive: -1.82% | –
CCCNC(=S)N1CCN(c2nc(C)nc3sc4c(c23)CCCC4)CC1 | – | inconclusive [inhibitor, single point]
COc1ccc(N2CCN(C(=O)CCCn3c(=O)c4cccn4c4cccnc43)CC2)cc1 | – | inconclusive [inhibitor, partial curve]
O=C(CCc1nnc(CCCc2ccccc2)o1)NCCCC1CCCC1 | – | inconclusive [inhibitor, single point]
COc1ccc(OCc2cc(/C=N\NC(=O)c3ccccc3)ccc2OC)cc1 | – | active: 4.61 µM
CCOc1ccc(CNC(=O)c2sc3nc(C)cc(C)c3c2-n2cccc2)cc1 | – | inconclusive [inhibitor, partial curve]
Cc1cc2oc(C(=O)Nc3nc(-c4ccccc4)ns3)c(C)c2cc1Cl | – | inconclusive [inhibitor, single point]
Cc1ccc(Cl)cc1-c1cc(C(=O)NCc2ccccc2)[nH]n1 | inactive: -29.1% | –
O=C(Nc1cccc(C(F)(F)F)c1)C1CC(=O)N(Cc2ccco2)C1 (stereo not drawn) | inactive: 0.312% | –
Oc1ccc(C[C@H]2CNC(=S)N2CC2CCCN2C[C@H](Cc2ccc(O)cc2)N2C[C@H](Cc3ccccc3)N(CC3CCCCC3)C2=S)cc1 (stereo partly drawn) | – | active: 16.4 µM
CC1CCN(C(=O)CN2C(=O)C(=O)N(C(C)C)C2=O)c2ccccc2S1 (stereo not drawn) | inactive: -8.21% | –
CN1CCN(CCCN2c3ccccc3Sc3ccc(Cl)cc32)CC1 | – | active: 2.99 µM and active: 5.8 µM and active: 4.61 µM

SMILES | activity change, negative = growth inhibition | Potency
COc1ccc(S(=O)(=O)N2CCOC2CNC(=O)C(=O)NCCc2ccccc2)cc1 (stereo not drawn) | – | inconclusive [inhibitor, partial curve, poor fit]
CCC(CC)C(=O)N1CCc2cc(OC)c(OC)cc2C1COc1ccccc1OC (stereo not drawn) | – | inconclusive [inhibitor, single point]
CC(=O)c1ccc(NS(=O)(=O)c2ccc3[nH]c4c(c3c2)CCCCCC4)cc1 | inconclusive: -30.8% [inhibitor] | –
S=C(Nc1ccc(Cl)cc1Cl)NC1CCCCC1 | – | inconclusive [inhibitor, single point]
Cc1ccc(O)c(C(CC(=O)NC2CCCCC2)c2ccccc2)c1 (stereo not drawn) | inactive: -66.9% | –
CCOc1ccc(S(=O)(=O)Nc2ccc(C(=O)NCC(c3ccco3)N3CCCCC3)cc2)cc1 (stereo not drawn) | – | inconclusive [inhibitor, partial curve]
C=CCSc1nc2c(c(=O)[nH]c(=O)n2C)n1Cc1ccc(C)cc1 | – | inconclusive [inhibitor, partial curve, poor fit]
O=C1CC(N2CCC(c3nc4ccccc4s3)CC2)C(=O)N1Cc1ccccc1 (stereo not drawn) | – | inconclusive [inhibitor, partial curve]
O=C(c1ccc([N+](=O)[O-])o1)N1CCc2ccccc2C1 | – | active: 20.6 µM
O=C(O)COc1ccccc1/C=N/NC(=O)CNC(=O)c1ccc(F)cc1 | – | inconclusive [inhibitor, single point]
Cc1ccc(C(C)C)cc1OCC(=O)NNC(=O)Nc1ccccc1 | – | inconclusive [inhibitor, single point]
CCCc1nc2c(C)cc(Br)cn2c1Cc1ccc(OC)cc1C | – | inconclusive [inhibitor, single point]
N=C1SC(CC(=O)Nc2ccccc2[N+](=O)[O-])C(=O)N1c1ccccc1 (stereo not drawn) | – | inconclusive [inhibitor, single point]
O=C(c1cc(C(F)(F)F)cc(C(F)(F)F)c1)N1CCC2(CCN(Cc3ccccc3)CC2)CC1 | – | inconclusive [inhibitor, single point]
CCCc1nnc(SCC(=O)N2CCCCC2C)n1CCOC (stereo not drawn) | inactive: -13.5% | –
COc1cccc(CNC(=O)[C@@H]2CCCN2C(=O)[C@H]2CCCCN2C(=O)c2ccccc2)c1 | inactive: -12.4% | –
COc1ccc(-c2cc3c(c4c2ccn4C)C2CCC3C2)cc1OC (stereo not drawn) | – | inconclusive [inhibitor, single point]
Cc1ccc(S(=O)(=O)N2[C@@H](c3ccc(C(C)(C)C)cc3)C(C(=O)O)=CC[C@H]2c2cccs2)cc1 | – | inconclusive [inhibitor, single point]
Cc1onc(-c2c(F)cccc2Cl)c1C(=O)Nc1cccc(S(=O)(=O)N2CCCCC2)c1 | – | inconclusive [inhibitor, partial curve]
COc1cc(OC)c2c(-c3ccccc3)cc(=O)oc2c1C(CC(=O)N1CCOCC1)c1ccc2c(c1)OCO2 (stereo not drawn) | – | inconclusive [inhibitor, partial curve, poor fit]

SMILES | activity change, negative = growth inhibition | Potency
COc1ccc(-c2nn(C)c3sc(C(=O)N4CCN(c5cc(Cl)ccc5C)CC4)cc23)cc1OC | – | active: 14.6 µM
CCOc1ccc(-c2nonc2NC(=O)COc2ccc(C)c(C)c2)cc1OCC | inactive: -25.1% | –
O=C(N/N=C/c1ccc(F)cc1)c1cccc(NC(=O)c2ccc(F)cc2)c1 | – | inconclusive [inhibitor, single point]
NS(=O)(=O)c1ccc(NC(=S)Nc2ccc(Br)c(Cl)c2)cc1 | – | inconclusive [inhibitor, single point]
COc1ccc(C(=O)CCC(=O)Nc2cccc(C(C)=O)c2)cc1 | inactive: 20.4% | –
O=C(N/N=C\c1c(O)ccc2ccccc12)c1cncc(Br)c1 | – | active: 1.64 µM
CCOc1ccc(-c2cnc(NCc3cccc(Cl)c3)n2C)cc1 | – | inconclusive [inhibitor, single point]
COc1ccc(CNC(=O)COc2ccc(S(=O)(=O)N3CCCCC3)cc2)cc1 | inactive: -19.6% | –
CC(C)[C@H](NC(=O)c1c(F)cccc1F)C(=O)N1CCN(c2ccc(F)cc2)CC1 | – | inconclusive [inhibitor, single point]
Cc1ccc(O)c(Nc2ncnc3ccccc23)c1 | – | inconclusive [inhibitor, single point]
O=C(CN1C(=O)NC2(CCCCCCC2)C1=O)NCc1ccccc1Cl | inactive: -15.4% | –
CCOc1ccc(OCC(O)CNC2CCN(Cc3ccccc3)CC2)cc1 (stereo not drawn) | – | active: 5.8 µM
Cc1c(Cl)cccc1NC(=S)NC1CCN(Cc2ccccc2)CC1 | – | inconclusive [inhibitor, single point]
NNC(=O)CNC(=O)Nc1n[nH]c(=S)s1 | inactive: -3.32% | –
CCCNC(=O)C1(C)CCN(Cc2ccc(Oc3ccccc3)cc2)C1 (stereo not drawn) | – | inconclusive [inhibitor, single point]
Cc1cc(Cn2nc(C(=O)NCc3cccc(C(F)(F)F)c3)cc2-c2ccccc2)on1 | – | inconclusive [inhibitor, single point]
Cc1ccc(Cn2c(=O)n(Cc3ccc(Cl)cc3)c(=O)c3cccnc32)cc1 | inactive: -29.9% | –
CCOc1cccc(C(=O)Nc2ccncc2)c1 | – | active: 23.1 µM
